Test results: PubChem BioAssay AID624418 (National Center for Advancing Translational Sciences (NCATS), 2012)
Hit rate of the full screen: of about 410,000 compounds, about 530 (0.13%) were called active. Inconclusive means that the source gave no clear call. Such entries were picked first, then a sample of the others. Calls come from the whole dose curve; as a rule, active = well fitted inhibition curve with a large enough effect; inconclusive = small, poorly fitted or top-dose-only effect, or another doubt; inactive = no such curve, though single readings can be large or run the other way. Potencies of inconclusive entries are doubtful fits and often do not repeat.
Potency is the fitted concentration of half-maximal effect.

Experiment: qHTS of GLP-1 Receptor Inverse Agonists: Cytotox Screen
Details: HEK293 cAMP-luciferase reporter cells, luminescence, 24 h; series mostly up to 38.3 µM
Outline: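 Compound-treated cells are incubated 24 hr at 37 deg C under 5% CO2 after a 12 hour attachment period, then luciferase detection reagent is added and luminescence is measured following 12 min at room temperature; lowered signal indicates toxicity.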
For `CC(=O)c1ccc(NC(=O)COC(=O)c2ccccc2N=Nc2ccc(N(C)C)cc2)cc1`, the Potency was active: 10 µM.
With `CCN(CC(=O)NC(=O)NC1CCCCC1)Cc1nc2ccccc2c(=O)[nH]1` the Potency was inconclusive: 10 µM [inhibitor, partial curve, poor fit].
In the case of `C#CCOCCOCCOCCNc1nc(N2CCN(C(=O)[C@H](CCC(=O)O)n3cc(CN)nn3)CC2)nc(N2CCN(C(=O)[C@H](CCC(=O)O)n3cc([C@@H](N)[C@H](C)CC)nn3)CC2)n1`, the Potency is reported as “inactive”.
In the case of `CCN1CCN(c2ncc(C(=O)Nc3cc(Cl)c(OC)cc3OC)c3ccccc23)CC1`, the Potency is reported as inconclusive: 4.47 µM [inhibitor, full curve, poor fit].
For `CCC1(CC)NC(=S)NC1=S`, the Potency was inconclusive: 2.82 µM [inhibitor, full curve].
With `CCOC(=O)C1CCCN(C(=O)c2cc(Nc3ccc(OC)c(OC)c3)nc3ccccc23)C1` (stereo not drawn) the Potency was inconclusive: 12.6 µM [inhibitor, single point].
In the case of `CCn1ncc(/C=C2/SC(=S)NC2=O)c1C`, the Potency is reported as inconclusive: 10 µM [inhibitor, partial curve, poor fit].
For `Cc1ccn2c(NC(C)(C)C)c(-c3cccs3)nc2c1`, the Potency was inconclusive: 22.4 µM [inhibitor, single point].
For `C=CCn1c(=O)c(C(=O)OCC)c(O)c2ccccc21`, the Potency was “inactive”.
For `COC(=O)c1ccc2nc(NC(=O)C(C)(C)C)sc2c1`, the Potency was “inactive”.
With `CCN(CC(=O)NC(C)(C)C)Cc1nc2c(Br)cc(Br)cc2c(=O)[nH]1` the Potency was inconclusive: 28.2 µM [inhibitor, single point].
With `CCOc1ccc(-c2nnc(SCC(=O)Nc3cccc(OC)c3)nc2-c2ccc(OCC)cc2)cc1` the Potency was “inactive”.
With `COc1cccc(C2CC(=O)Nc3c2c(=O)[nH]c2nc4ccccc4n32)c1` (stereo not drawn) the Potency was “inactive”.
With `Cc1ccccc1C(=O)N1CCC(C(=O)Nc2ccc(S(=O)(=O)N3CCCCC3)cc2)CC1` the Potency was “inactive”.
In the case of `O=C(c1ccc2ccccc2c1)N1CCN(c2ccc([N+](=O)[O-])c(N3CCOCC3)c2)CC1`, the Potency is reported as inconclusive: 12.6 µM [inhibitor, partial curve, poor fit].
In the case of `COc1ccc(C(=O)NCC(c2ccc3c(c2)OCO3)N2CCN(c3ccccc3F)CC2)cc1` (stereo not drawn), the Potency is reported as “inactive”.
With `COc1cccc(N=Nc2c(=O)[nH]n3c(=O)c4c([nH]c23)CCC4)c1` the Potency was inconclusive: 28.2 µM [inhibitor, single point].
For `Cc1onc(-c2c(Cl)cccc2Cl)c1C(=O)NC(=S)N1CCOCC1`, the Potency was inconclusive: 2 µM [inhibitor, full curve].
With `COc1ccc(C(=O)Nc2cnn(Cc3c(F)cccc3Cl)c2)cc1OC` the Potency was inconclusive: 3.55 µM [inhibitor, partial curve, poor fit].
In the case of `N#Cc1c(-c2ccccc2)nc(SCc2ccc(Cl)cc2)[nH]c1=O`, the Potency is reported as inconclusive: 3.16 µM [inhibitor, partial curve, poor fit].
In the case of `O=C1Nc2ccc([N+](=O)[O-])cc2C1(O)N1CCCCC1` (stereo not drawn), the Potency is reported as inconclusive: 5.01 µM [inhibitor, full curve].
With `CCc1ccc(NC(=O)Cn2c(=O)n(CCCCC(=O)NCCc3ccc(Cl)cc3)c(=O)c3ccccc32)cc1` the Potency was “inactive”.
For `CCOC(=O)c1c(NC(=O)c2nc(S(C)(=O)=O)ncc2Cl)sc(C(C)=O)c1C`, the Potency was “inactive”.
In the case of `O=C(NCc1nc2ccccc2[nH]1)C1=C[C@H](C2CCCCC2)C[C@H](OCc2ccc(CO)cc2)O1`, the Potency is reported as inconclusive: 10 µM [inhibitor, single point].
With `CC(c1ccccc1F)n1cc(C(=O)NCc2ccncc2)nn1` (stereo not drawn) the Potency was “inactive”.
For `Cc1c(C)n(Cc2ccccc2)c2ccc(C(=O)OCCCN(C)C)cc12`, the Potency was inconclusive: 28.2 µM [inhibitor, single point].
In the case of `O=C(Nc1ccccc1)Nc1ccc(F)c([N+](=O)[O-])c1`, the Potency is reported as inconclusive: 10 µM [inhibitor, single point].
With `COc1cc(/C=N/NS(=O)(=O)c2ccc(C(C)(C)C)cc2)cc([N+](=O)[O-])c1O` the Potency was inconclusive: 28.2 µM [inhibitor, single point].
In the case of `CC(NC(=S)NC(=O)c1cccs1)c1ccccc1` (stereo not drawn), the Potency is reported as inconclusive: 28.2 µM [inhibitor, single point].
For `CC(C)(C)NC(=S)NNC(=O)[C@H]1C[C@@H]1c1ccccc1`, the Potency was inconclusive: 2.51 µM [inhibitor, full curve].
With `CCCNC(=S)N1CCC(Cc2ccccc2)CC1` the Potency was inconclusive: 7.94 µM [inhibitor, partial curve].
In the case of `CCN(CC)C(=O)c1cnn(-c2ccccc2)c1NC(=O)c1ccco1`, the Potency is reported as “inactive”.
For `CN1CCN(c2ccccc2NC(=O)c2ccc(-c3ccccc3[N+](=O)[O-])o2)CC1`, the Potency was inconclusive: 20 µM [inhibitor, single point].
With `COc1ccc(N(Cc2cccs2)C(=O)c2ccc(OCC(C)C)cc2)cc1` the Potency was “inactive”.
In the case of `COc1ccc(N(CC(=O)NC2CC3CCC2C3)S(=O)(=O)c2ccc(C)cc2)cc1` (stereo not drawn), the Potency is reported as “inactive”.
With `Cc1cccn2c(CNCC3(c4ccccc4)CCCC3)c(C(=O)N3CCOCC3)nc12` the Potency was inconclusive: 10 µM [inhibitor, single point].
With `C(=C\c1nnc(-c2cccs2)o1)/c1ccccc1` the Potency was “inactive”.
In the case of `COc1ccc(S(=O)(=O)N2N=C(C)Oc3ccccc3C2=O)cc1`, the Potency is reported as inconclusive: 1.26 µM [inhibitor, partial curve, poor fit].
In the case of `C=CCNC(=S)N/N=C/c1ccc(-c2ccc(Br)cc2)o1`, the Potency is reported as inconclusive: 3.98 µM [inhibitor, partial curve, poor fit].
With `CN(Cc1ccccc1)CC(O)COc1ccc(CNCc2nccn2C)cc1` (stereo not drawn) the Potency was inconclusive: 7.08 µM [inhibitor, partial curve, poor fit].
In the case of `CC(=O)Nc1ccc(C23CC4CC(CC(C4)C2)C3)cc1`, the Potency is reported as “inactive”.
In the case of `Cn1c(CN2CCCCC2)nc2cc(NC(=O)c3ccccc3Cl)ccc21`, the Potency is reported as inconclusive: 31.6 µM [inhibitor, single point].
In the case of `COc1ccc(C2=NOC(C(=O)NCc3ccco3)C2)cc1OC` (stereo not drawn), the Potency is reported as inconclusive: 3.98 µM [inhibitor, partial curve, poor fit].
